Measurements taken from the supplement of paper PMC12217912.
Some of the results follow. Sequences were assembled here from the parent chain. Inactive controls read about 0.05.

B1: TEV protease; numbered along this chain (parent)
chain: MGESLFKGPRDYNPISSSICHLTNESDGHTTSLYGIGFGPFIITNKHLFRRNNGTLVVQSLHGVFKVKDTTTLQQHLVDGRDMIIIRMPKDFPPFPQKLKFREPQREERICLVTTNFQTKSMSSMVSDTSCTFPSGDGIFWKHWIQTKDGQCGSPLVSTRDGFIVGIHSASNFTNTNNYFTSVPKNFMELLTNQEAQQWVSGWRLNADSVLWGGHKVFMVKPEEPFQPVKEATQL

Variants of: B1
Assay: raw area under fraction-flipped curve 0-4 h after induction (AUC4h, not background-subtracted), DNA-recorder readout of cleavage of the substrate (dimensionless); higher = more cleavage of the substrate by the protease variant
Details: temperature: 34 °C; time window: 0-4 h after rhamnose induction
Description: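 In vivo DNA recorder in E. coli TOP10(DE3) ΔrhaA at 34 °C. Each TEVp single-site mutant (parent TEVp 0) is paired with a single-site variant of the 7-mer TEVs (canonical ENLYFQ|S). The substrate sits between flexible linkers in a Bxb1-sfGFP-TEVs-SsrA fusion, so cleavage stabilises Bxb1 and speeds flipping of a recombination array, read by NGS. The value is the raw area under the fraction-flipped curve over 0-4 h after rhamnose induction (AUC4h), with ≥20 reads per time point. It is not background-subtracted; inactive controls average about 0.047.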
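Note: Bxb1 expression induced with 0.2% (w/v) L-rhamnose at OD600 near 0.5, cultures sampled hourly, flipped fraction per protease–substrate barcode pair counted by paired-end Illumina sequencing.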

Row | Variant | area with substrate ENLYDQS | area with substrate ENLYHQS | area with substrate ENLYKQS | area with substrate ENLYPQS | area with substrate ENLYQQS | area with substrate ENLYRQS | area with substrate ENLYSQS | area with substrate ENLYTQS | area with substrate ENLYCQS | area with substrate ENLYEQS | area with substrate ENLYGQS | area with substrate ENLYIQS | area with substrate ENLYMQS | area with substrate ENLYNQS | area with substrate ENLYVQS | area with substrate ENLYWQS | area with substrate ENLYYQS | area with substrate ENLYLQS
1 | I110E | 0.0546 | 0.0695 | 0.0528 | 0.0459 | 0.0553 | 0.0599 | 0.0526 | 0.0601 |  |  |  |  |  |  |  |  |  | 
2 | D149G | 0.0617 | 0.0654 | 0.0666 | 0.0708 | 0.0618 | 0.053 | 0.0667 | 0.066 | 0.104 | 0.0722 | 0.0571 | 0.0807 | 0.0825 | 0.0643 | 0.087 | 0.0721 | 0.0481 | 
3 | F65A | 0.0464 | 0.067 | 0.0658 | 0.0718 |  | 0.0619 |  |  |  | 0.0923 |  | 0.0785 |  | 0.0653 |  |  |  | 0.0721
4 | L112D | 0.0558 | 0.0609 | 0.0648 |  |  | 0.0545 |  |  |  |  | 0.0625 | 0.0586 |  |  | 0.0501 |  |  | 0.0645
5 | G202C |  |  |  | 0.0487 | 0.0758 |  | 0.0613 | 0.0608 | 0.0678 | 0.0618 |  | 0.0885 | 0.0651 |  | 0.0793 | 0.062 |  | 
6 | I145R | 0.059 | 0.078 |  | 0.0506 |  | 0.0408 | 0.052 |  | 0.0737 | 0.0565 |  | 0.0752 |  | 0.0706 | 0.0648 | 0.0544 | 0.0513 | 0.0473
7 | I145E | 0.0552 | 0.0754 |  | 0.0632 | 0.0593 | 0.0247 |  |  | 0.0613 | 0.0564 | 0.0613 |  |  |  | 0.0773 |  |  | 
8 | G138H |  |  |  |  |  | 0.0597 | 0.0639 | 0.0497 | 0.0953 | 0.0622 | 0.0732 | 0.129 |  |  |  |  |  | 0.0724
9 | H215V |  | 0.0671 |  | 0.0627 | 0.0604 |  | 0.0653 |  | 0.0748 | 0.0658 | 0.0459 |  | 0.0522 | 0.0392 |  |  |  | 
10 | N206F | 0.0663 | 0.0579 | 0.0439 | 0.0693 |  |  | 0.0688 | 0.0694 | 0.0762 | 0.0585 |  | 0.097 |  | 0.0585 | 0.0919 | 0.0738 | 0.0536 | 
11 | S18N | 0.0209 | 0.068 | 0.0679 | 0.0727 | 0.0507 |  |  |  |  |  | 0.0609 |  | 0.0788 | 0.0672 | 0.116 | 0.0725 | 0.0628 | 
12 | P104K | 0.0794 |  |  |  |  |  |  | 0.0461 |  |  | 0.0492 | 0.0502 |  | 0.0364 |  |  |  | 
13 | P104H | 0.0527 | 0.0499 |  |  | 0.0481 | 0.0506 |  |  |  | 0.0437 | 0.0363 |  |  |  | 0.0523 | 0.0466 |  | 
14 | H29F | 0.0654 | 0.0647 | 0.0653 | 0.0759 | 0.0872 |  |  | 0.0792 |  | 0.0511 | 0.0665 |  | 0.0841 | 0.0893 | 0.118 | 0.0838 |  | 
15 | E231W | 0.0501 | 0.0558 | 0.0582 | 0.068 | 0.0542 |  |  |  | 0.1 | 0.0567 |  | 0.103 |  | 0.0613 | 0.105 | 0.0661 | 0.0626 | 
16 | M219A | 0.0627 | 0.105 | 0.0692 | 0.0602 | 0.0843 | 0.0434 | 0.0863 | 0.0424 | 0.0711 | 0.0741 |  | 0.07 | 0.118 |  | 0.0743 |  | 0.061 | 0.0217
